Laboratory results: the supplement of paper PMC3334620
Whole data set: some 33,000 sequences, median “E-score (-0.5 to 0.5)” near -0.012, cut for the highest 2% near 0.29. The list shows a part of the results.

These sequences were tested against T1, Ybr033w (UniProt P38073) (assay: PBM E-score (8-mer binding enrichment) (E-score (-0.5 to 0.5)); higher = stronger / more preferred TF binding; most listed sequences are background and not binding sites). Settings: protein concentration: 200 nM; construct: GST-full length.
T1 sequence: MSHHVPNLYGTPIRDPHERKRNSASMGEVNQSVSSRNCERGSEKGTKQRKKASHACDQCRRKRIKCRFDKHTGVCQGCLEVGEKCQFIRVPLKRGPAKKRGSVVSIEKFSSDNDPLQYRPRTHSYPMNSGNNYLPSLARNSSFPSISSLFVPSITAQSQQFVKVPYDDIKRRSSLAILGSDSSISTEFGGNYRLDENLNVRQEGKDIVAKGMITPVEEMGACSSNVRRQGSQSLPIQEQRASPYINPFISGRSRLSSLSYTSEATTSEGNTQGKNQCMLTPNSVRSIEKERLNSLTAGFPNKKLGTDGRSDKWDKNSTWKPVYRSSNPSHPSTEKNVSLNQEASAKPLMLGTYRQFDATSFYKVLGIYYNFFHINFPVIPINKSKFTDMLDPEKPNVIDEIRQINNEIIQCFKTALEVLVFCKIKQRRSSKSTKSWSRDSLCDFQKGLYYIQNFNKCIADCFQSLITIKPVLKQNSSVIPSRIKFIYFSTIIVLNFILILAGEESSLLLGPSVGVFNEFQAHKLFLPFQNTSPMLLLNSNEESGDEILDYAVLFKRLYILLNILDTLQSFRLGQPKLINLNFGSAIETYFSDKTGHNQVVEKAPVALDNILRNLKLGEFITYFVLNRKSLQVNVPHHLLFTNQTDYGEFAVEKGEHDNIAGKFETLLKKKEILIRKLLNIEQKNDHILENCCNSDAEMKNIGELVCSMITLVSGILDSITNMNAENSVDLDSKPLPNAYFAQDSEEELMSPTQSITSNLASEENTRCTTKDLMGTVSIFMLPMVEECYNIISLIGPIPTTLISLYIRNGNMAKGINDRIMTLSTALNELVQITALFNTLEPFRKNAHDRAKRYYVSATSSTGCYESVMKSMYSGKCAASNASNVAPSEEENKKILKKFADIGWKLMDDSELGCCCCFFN
How it was run: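 PURExpress in vitro transcription/translation supplied GST-tagged yeast transcription factors, either full-length or DNA-binding domain. Applied at about 100-200 nM to universal all-10-mer Agilent arrays double-stranded by primer extension, the bound protein was detected with fluorescent anti-GST. E-scores, modified Wilcoxon-Mann-Whitney statistics, were given by the Universal PBM Analysis Suite to ungapped eight-base words pooled with their reverse complements after masliner normalisation.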

Sequence | PBM E-score
AGCTCCAT | -0.166
GGTATATA | 0.134
CTCCGTGC | -0.113
ACAGGGAC | -0.0996
GCGCTTAC | -0.0871
AACAACAT | 0.178
CACCCGCA | -0.177
GACATAAC | 0.169
AGATTTTG | 0.252
CACAGAGC | -0.121
AGTGTAGG | -0.0647
TGCGGACA | 0.0588
GGGCTACA | -0.244
ACTCAAGT | 0.0149
CGGTAAGC | -0.0409
AGCTTAAA | 0.0992
AACCTATG | 0.107
GTCGCGAC | 0.234
CCGCAAGC | -0.195
CACGTGCA | -0.267
CTTAGCAA | 0.0907
GAAATTCA | 0.228

Sequence | PBM E-score
ACTGATTC | -0.0423
ACAAAGGC | -0.0579
AATGTGCG | 0.0594
AGAACATC | 0.101
CTAACTTC | 0.172
GGCACTGA | -0.0563
AGCTTCTG | -0.0239
AACGTGCC | -0.111
GCTTCAAA | 0.119
GGACCTCA | -0.205
ATGAGGGC | -0.175
CGATCAGC | -0.0315
AAGGTTAG | -0.121
AGATCCCG | 0.103
GGCCAGTA | -0.199
CGTATTTA | 0.311
CAGGGCCC | -0.323
ACTCTCAA | 0.161
AGGCTACA | -0.123
CCAGCACC | -0.243
CCTTACCA | -0.00851
ACCACCCC | -0.279

Sequence | PBM E-score
AATGTTAT | 0.194
ACTTAAAG | -0.119
CTGTTAAC | 0.151
CACCTCTA | 0.0186
CAACGCCC | -0.241
CGGCTTGA | 0.00226
TAAACAAA | 0.245
CCTTAATC | 0.12
CGCTGCTC | -0.233
AAATTCGC | 0.216
ATCGCGTG | -0.0579
CAATACAG | -0.105
CCGACAGG | -0.0474
CTACAATC | 0.233
CGGATATA | 0.345
CTTTGGAA | 0.0885
CAGCTCCC | -0.352
GGTGACGA | 0.0876
GAACCTCC | -0.195
ATTAAACA | 0.312
AATATCTA | 0.23
ACTGAATG | 0.0593

Sequence | PBM E-score
CGCCTACG | -0.187
GGAACCTA | -0.0963
ATGAACGA | 0.0138
ATTAGGCG | -0.0373
AATAATCT | 0.285
TGACCAAA | 0.0924
CCCTAGGG | -0.259
ATGACATC | 0.0254
CACCTCAA | 0.0296
AAAGACCA | -0.147
TTCAGGAA | 0.104
CTTGCCAA | 0.0434
CACATGCC | -0.0396
CTTGGGGA | -0.145
ACTCGCAT | 0.106
GTTAGATA | 0.283
CCGTAAGG | -0.373
TGACAACA | -0.00809
ACTAGGCC | -0.185
AGAGGTGG | -0.156
